The record followed here is PubChem BioAssay AID1159614 (National Center for Advancing Translational Sciences (NCATS), 2016).

The structures appear in SMILES notation. Out of some 45,000 compounds screened, about 65 (0.1%) were called active. Calls follow the shape of the dose curve; as a rule, active = well fitted activation curve with a large enough effect; inconclusive = small, poorly fitted or top-dose-only effect; inactive = no such curve, though single readings can be large or run the other way. This is one part of the list.

Sequence of UniProt P54803 (P54803 whole entry, looked up): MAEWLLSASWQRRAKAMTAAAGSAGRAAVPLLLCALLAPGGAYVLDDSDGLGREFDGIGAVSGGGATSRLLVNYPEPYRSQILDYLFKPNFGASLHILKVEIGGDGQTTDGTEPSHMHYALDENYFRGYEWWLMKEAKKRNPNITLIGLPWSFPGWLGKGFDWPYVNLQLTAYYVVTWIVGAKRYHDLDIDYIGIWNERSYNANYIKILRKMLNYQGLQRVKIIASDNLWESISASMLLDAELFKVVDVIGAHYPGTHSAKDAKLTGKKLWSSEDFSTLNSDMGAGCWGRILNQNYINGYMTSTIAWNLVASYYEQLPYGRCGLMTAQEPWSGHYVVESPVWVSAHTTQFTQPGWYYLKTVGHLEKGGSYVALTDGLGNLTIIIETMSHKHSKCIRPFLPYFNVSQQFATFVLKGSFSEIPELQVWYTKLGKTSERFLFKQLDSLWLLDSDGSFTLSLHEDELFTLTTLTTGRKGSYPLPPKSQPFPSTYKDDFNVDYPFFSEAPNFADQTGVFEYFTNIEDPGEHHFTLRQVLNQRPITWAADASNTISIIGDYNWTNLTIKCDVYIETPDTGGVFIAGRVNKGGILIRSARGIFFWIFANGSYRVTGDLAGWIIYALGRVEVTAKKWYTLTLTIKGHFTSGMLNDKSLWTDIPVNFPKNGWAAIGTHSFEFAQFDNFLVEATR

The assay concerns the target Galactocerebrosidase (Homo sapiens) (UniProt P54803). Briefly: A Novel Cell-Based Assay to Identify Small Molecules for B -Galactocerebrosidase. Also: 0% is about no effect; nearly all actives have a fitted effect of over 65% in size. The following applies: 145M-Twi-hGALC-G270D cells (Twitcher mouse brain line with human GALC G270D), HMU-beta-Gal fluorescence, 48 h; series mostly up to 57.5 µM; activation: at the top concentration. The method, boiled down:
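Mutant human GALC (G270D), stably expressed in a Twitcher mouse brain cell line lacking endogenous GALC, is measured in live-treated cells via 6-hexadecanoylamino-4-methylumbelliferyl-β-galactoside hydrolysis (0.1 mM final, pH 5.2) with fluorescent detection.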
In the case of `COC(=O)CC1Oc2ccc(Cl)cc2-n2cc(-c3ccccc3)nc21` (stereo not drawn), the “activation” value was inactive: 4.45%. The result for `Oc1c(C(c2ccccc2)N2CCC(O)CC2)sc2nc(-c3ccco3)nn12` (stereo not drawn) reads inactive: -19%; that for `CCn1ccc2c(OCC(=O)Nc3ccccc3C(F)(F)F)cccc2c1=O`, inactive: -7.37%. Consider `O=C(NC1(C(F)(F)F)NC(=O)N(CCc2ccccc2)C1=O)c1ccc(Cl)cc1` (stereo not drawn), for which the “activation” value was inactive: -3.95%.

For `COc1ccc(NS(=O)(=O)c2ccc3[nH]c4c(c3c2)CCCC4)cc1OC`, the “activation” value is inactive: -8.86%. The result for `CCOc1ccc(CCNC(=O)c2cnc3sc(N4CCCC4)nn3c2=O)cc1` reads inactive: -5.58%. The result for `CC1N=C2c3ccccc3N=C(SCC(=O)NCCc3ccccc3)N2C1=O` (stereo not drawn) reads inactive: -30.3%; that for `COc1ccc(Nc2c3c(nc4ccc(NC(=O)c5ccc(F)cc5)cc24)CCCC3)cc1OC`, inactive: -22.2%; that for `CN(Cc1ccccc1)C(=O)c1nc(-c2ccc(Cl)cc2)n2c1CCCCC2`, inactive: -17.9%. Then `Cc1ccc(C)c(NC(=O)c2ccc(CN3CC(=O)N4CCCCC4C3=O)cc2)c1` (stereo not drawn), with inactive: -23.6%. Take `CCn1c(CN2CCCCC2)nc2cc(NC(=O)c3cc(OC)c(OC)c(OC)c3)ccc21`: the “activation” value is inactive: -19.7%.

Regarding `CCOC(=O)C(C)Sc1ccc2nnc(CCNS(=O)(=O)c3ccccc3)n2n1` (stereo not drawn), the “activation” value is inactive: -11.5%.

Turning to `CC(=O)Nc1ccc(NC(=O)c2ccc3c(c2)N(Cc2cccc(Cl)c2)C(=O)c2ccccc2S3(=O)=O)cc1`, the “activation” value was inactive: -13.6%. Then `Cc1cccc(Cn2cccc2CNS(=O)(=O)c2ccc(Br)cc2)c1`, with inactive: -6.97%; and `COc1ccc(-c2cc3ccc(O)c(CN4CCC(C)CC4)c3oc2=O)cc1OC`, with inactive: -9.86%. The result for `COc1cc(-c2nnc(SCCOc3cc(C)cc(C)c3)o2)cc(OC)c1OC` reads inactive: 15.2%; that for `CC(CN1c2ccccc2Sc2ccccc21)N(C)C` (stereo not drawn), inactive: -6.54%; that for `Cc1cc(OC(C)C(=O)Nc2sc3c(c2C(N)=O)CCCC3)ccc1Cl` (stereo not drawn), inactive: -6.77%.

For the compound `CC(NC(=O)CN1C(=O)c2cccnc2Oc2ccc(Cl)cc21)c1ccccc1` (stereo not drawn), the “activation” value was inactive: -7.66%. On to `COc1ccc(S(=O)(=O)Nc2cc(S(=O)(=O)c3ccccc3)c(O)c(C)c2C)cc1`, for which the “activation” value is inactive: -14.2%. The result for `Cc1ccccc1CN1C(=O)c2ccccc2S(=O)(=O)c2ccc(C(=O)OCC3CCCO3)cc21` (stereo not drawn) reads inactive: 2.46%; that for `Cc1ccc(C(C)C)c(OC(C)C(=O)NCC2(N(C)C)CCCCC2)c1` (stereo not drawn), inactive: -3.83%. Consider `Cc1ccc(Cn2c(C(C)NC(=O)c3ccccc3)nc3ccccc32)cc1` (stereo not drawn), for which the “activation” value is inactive: -27.2%. The result for `O=C(NCCCN1CCN(c2ccccc2)CC1)c1ccc2nc(Cc3ccccc3)oc2c1` reads inactive: -14.2%. Then `CNC(=O)c1ccccc1Sc1ccc2c(/C=C/c3ccccn3)n[nH]c2c1`, with inactive: -6.92%; and `CCOc1ccccc1CNc1nc2nc(C)cc(C)n2n1`, with inactive: -9.92%; and `CCC1CCCCN1C(=O)CSc1nc2c([nH]c3ccccc32)c(=O)n1-c1ccc(OC)cc1` (stereo not drawn), with inactive: 13%. The result for `Cn1ccc2cc(S(=O)(=O)N3CCN(C(=O)Nc4ccc(F)cc4F)CC3)ccc21` reads inactive: -0.271%.

For `CC(C)NC(=O)CCC(=O)N1Cc2ccccc2Oc2ncccc21`, the “activation” value is inactive: -12.3%. Then `Cc1noc(C)c1S(=O)(=O)N1CCC(C(=O)N2CCN(c3cccc(C(F)(F)F)c3)CC2)CC1`, with inactive: -16.7%; and `CCOC(=O)c1c(C)[nH]c(CCC(=O)Nc2ccc(OC)c(OC)c2)c1C`, with inactive: -9.8%.

`COc1ccc(OC)c(CCNC(=O)Cn2ncc3c([nH]c4ccccc43)c2=O)c1`: the “activation” value was inactive: -6.25%.

`Cc1ccccc1C(=O)n1nc(-c2cccnc2)nc1NCc1ccccc1`: the “activation” value was inactive: -11.5%. The result for `CCCCN(CC)CCCNC(=O)c1nn(C)c2c1CSc1ccccc1-2` reads inactive: -12.1%; that for `CCn1cc(C(=O)N2CCN(c3cccc(C)c3C)CC2)c2cc(OC)c(OC)cc2c1=O`, inactive: -6.59%; that for `NS(=O)(=O)c1ccc(NC(=O)C2Cc3ccccc3N2C(=O)c2ccccc2)cc1` (stereo not drawn), inactive: -10.5%. Then `CCn1cc2nc(SCC(=O)Nc3ccccc3C(F)(F)F)n(Cc3ccc(C)cc3)c(=O)c2n1`, with inactive: 2.01%. Then `CC1Cc2ccccc2N1S(=O)(=O)c1nnc(NC(=O)c2ccccc2)s1` (stereo not drawn), with inactive: -10.1%; and `COC(=O)c1nnn(CC(=O)NC(=O)Nc2c(C)cccc2C)c1C(=O)OC`, with inactive: -9.13%. With `COc1ccc(C2CC(=O)c3cc(-c4nc(-c5ccc(Cl)cc5)cs4)c(=O)[nH]c3C2)cc1OC` (stereo not drawn), the “activation” value is inactive: -3.28%. As for `COCCCNC(=O)CCC(=O)NNc1nc2ccccc2c2nc(C)nn12`, the “activation” value is inactive: -6.77%. In the case of `COc1ccc(N2CC(NC(=O)C(c3ccccc3)c3ccccc3)CC2=O)cc1OC` (stereo not drawn), the “activation” value was inactive: -6.71%.

On to `CC(C)Oc1ccc(-c2nc3c(C#N)c[nH]n3c2NC2CCCCC2)cc1`, for which the “activation” value was inactive: -9.91%. Turning to `COC(=O)c1ccc(C(=O)OC)c(NC(=O)c2ccc(-c3ccccc3)s2)c1`, the “activation” value is inactive: -11.9%. Then `COc1cccc(-c2nc(S(=O)(=O)c3ccc(C)cc3)c(N3CCCCC3)o2)c1`, with inactive: -10%; and `COc1ccc(Cn2c(=O)c3cccnc3n(Cc3cccc(F)c3)c2=O)cc1`, with inactive: -33.1%; and `COc1ccc(-c2nc(SCC(=O)Nc3c(C)cc(C)cc3C)n[nH]2)cc1`, with inactive: -10.7%. With `COc1ccccc1CNC(=O)c1ccc2nc(CCc3ccccc3)oc2c1`, the “activation” value is inactive: -18.3%.
